{"source": "paper PMC5892938", "note": "The other results are listed elsewhere or left out. At the low end of the ranking the order means little."}
{"molecular_target": "GST-SBP-SLBP (stem-loop binding protein) (UniProt Q14493)", "assay": "targeted RNA Bind-n-Seq;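 also: DESeq read counts versus GST-SBP nonspecific binding control pulldown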", "conditions": "RBNS binding buffer: 25 mM Tris pH 7.5, 150 mM KCl, 3 mM MgCl2, 0.1% Tween, 0.5 mg/mL BSA, 1 mM DTT; 27 nM protein, 750 pM RNA pool; temperature not stated; high values mean tight binding"}
{"sequence": "GGUCACGUCUCAAUCAACUCUAUUUCAGGAGUUUUCUCCUGUUAACUCAACAGCUCGCAGUCAAG", "binding signal (log2 fold change)": 0.0827}
{"sequence": "GGUCACGUCUCAAUCAACUCUUAAGAGGGGGGGAAAACCCCUUUACCCUCAUUAUCAACAGCUCGCAGUCAAG", "binding signal (log2 fold change)": -0.0393}
{"sequence": "GGUCACGUCUCAAUCAACUCAUCGCCCAGGGAAAGCCCUGGUAUUUUCAACAGCUCGCAGUCAAG", "binding signal (log2 fold change)": -0.382}
{"sequence": "GGUCACGUCUCAAUCAACUCAUCCCCCAGGGAAACCCCUGGUUUUCUCAACAGCUCGCAGUCAAG", "binding signal (log2 fold change)": -0.0683}
{"sequence": "GGUCACGUCUCAAUCAACUCAUUCUCCAGGGAAAUCCCUGGUUUACUCAACAGCUCGCAGUCAAG", "binding signal (log2 fold change)": 0.22}
{"sequence": "GGUCACGUCUCAAUCAACUCCUAAGAGGGGGGGAAAACCCCUUUGCCCUCACACUCAACAGCUCGCAGUCAAG", "binding signal (log2 fold change)": -0.82}
{"sequence": "GGUCACGUCUCAAUCAACUCUUUCCCCAGGGAAAUCCCUGGCAAAUUCAACAGCUCGCAGUCAAG", "binding signal (log2 fold change)": 0.229}
{"sequence": "GGUCACGUCUCAAUCAACUCAUUAGAGGGGGGGAAAACCCCUUUGCCCUCAUCAUCAACAGCUCGCAGUCAAG", "binding signal (log2 fold change)": 0.191}
{"sequence": "GGUCACGUCUCAAUCAACUCUAUCUCAGGAGUUUUCUCCUGUAAUUUCAACAGCUCGCAGUCAAG", "binding signal (log2 fold change)": -0.193}
{"sequence": "GGUCACGUCUCAAUCAACUCAAUCUCAGGAGUUUGCUCCUGCAUAUUCAACAGCUCGCAGUCAAG", "binding signal (log2 fold change)": -0.0571}
{"sequence": "GGUCACGUCUCAAUCAACUCAUUCCCAGGAGUUUACUCCUGCUUUUUCAACAGCUCGCAGUCAAG", "binding signal (log2 fold change)": 0.0933}
{"sequence": "GGUCACGUCUCAAUCAACUCAAUUUCAGGAGUUUUCUCCUGCUUAGUCAACAGCUCGCAGUCAAG", "binding signal (log2 fold change)": 0.138}
{"sequence": "GGUCACGUCUCAAUCAACUCCAACGAGGGGGGGAAAACCCCUUUACCCUCUUAUUCAACAGCUCGCAGUCAAG", "binding signal (log2 fold change)": -0.21}
{"sequence": "GGUCACGUCUCAAUCAACUCUCCCGAGGGGGGGAAAACCCCUUUACCCUCUUUUUCAACAGCUCGCAGUCAAG", "binding signal (log2 fold change)": 0.135}
{"sequence": "GGUCACGUCUCAAUCAACUCUUCUCCCAGGGAAAUCCCUGGCAAUGUCAACAGCUCGCAGUCAAG", "binding signal (log2 fold change)": -0.0758}
{"sequence": "GGUCACGUCUCAAUCAACUCAAGUCCAGGAGUUUCCUCCUGCUUAUUCAACAGCUCGCAGUCAAG", "binding signal (log2 fold change)": 0.0241}
{"sequence": "GGUCACGUCUCAAUCAACUCAUCUCCCAGGGAAAGCCCUGGCAUUUUCAACAGCUCGCAGUCAAG", "binding signal (log2 fold change)": -0.138}
{"sequence": "GGUCACGUCUCAAUCAACUCAUUUCCAGGAGUUUUCUCCUGUUUUUUCAACAGCUCGCAGUCAAG", "binding signal (log2 fold change)": -0.0609}
{"sequence": "GGUCACGUCUCAAUCAACUCAAUUUCCAGGGAAAUCCCUGGCUAUUUCAACAGCUCGCAGUCAAG", "binding signal (log2 fold change)": -0.0682}
{"sequence": "GGUCACGUCUCAAUCAACUCACACGAGGGGGGGAAAACCCCUUUACCCUCAAUCUCAACAGCUCGCAGUCAAG", "binding signal (log2 fold change)": -0.408}
